Results as given in patent publication US11479601B2, “Antibodies specific to Sonic Hedgehog and method of use thereof” (The Regents of the University of California, priority 2016, dated 2022).

Columns and labels:
[1] = system: Shh 247-264 AA and Shh 448-462 AA peptides; test: Biolayer interferometry (Octet RED 384) with Shh peptide-mimic ligands; format: binding, human; details: 37-3000 nM peptides; versus IgG control antibody
Experimental: Antibody immobilization was checked via Octet® Software (ForteBio) prior to introduction of increasing concentrations (37, 111, 333, 1000, 3000 nM) of Sonic Hedgehog peptide-mimic ligands (Shh 247-264 AA and Shh 448-462 AA). Graphical output from the Octet® Software of representative data from two independent experiments is presented.

[2] = system: A549 cell subcutaneous xenograft tumor; test: A549 subcutaneous xenograft, intra-tumor injection of C-terminal Shh antibody; format: in vivo, mice
Experimental: For xenograft formation, female nude mice, 5 to 10 weeks old, were injected subcutaneously (SC) with 10 million A549 cells in the dorsal area in a volume of […]. For SC inoculation of sorted cells, 1,500 cells of A549 Shh+ or Shh− cells were injected in a volume of […]. For intra-veinous injection of sorted cells, 1,000 cells of A549 Shh+ or Shh− cells were injected in the tail vein. For the in vivo treatment assay, after xenograft formation, animals were injected intravenously with cisplatin (10 mg/kg weekly), docetaxel (10 mg/kg twice a week) or vehicle, and intraperitoneally with GDC0449 (20 mg/kg daily) or vehicle. Each group consisted in 4-5 mice. Tumor size was determined twice a week, and tumor volumes were calculated using width (x) and length (y) (x^2y/2, where x<y). Tumors were collected after mice euthanasia, and cell dissociation was performed as for fresh human samples (cf supra). Flow cytometry and FACS were done as described supra. All animals were cared in accord with University of California San Francisco (UCSF) guidelines.
The in vivo effect of the C-terminal Shh antibodies were tested using the A549 cell subcutaneous xenograft tumor model in mice, as described in Example 1. After xenograft formation, animals were intra-tumor injected with a C terminal Shh antibody (2G4 or 2D9; each at 158 μg), or a control solution, 3 times a week for about 3 weeks (at 2-3 day intervals). Tumor volume was determined, as described in Example 1, every 2 days. Weight and size of the excised tumor were determined after the antibody treatment. A portion of the excised tumor was sectioned for immunohistochemical analysis of Shh protein expression, and RNA was extracted from another portion of the excised tumor for analysis of Gli1 expression.

A549 cells = test: Viability of A549 cells treated with Shh antibodies ± GLI inhibitor 249C; format: cell-based, human; details: for Cell viability of A549 cells: 249C at 40 nM where added
Experimental: The effect of the C-terminal Shh antibodies from clones 2G4 and 2D9 on the viability of A549 cells was determined. A549 cells were exposed to increasing concentrations of the C-terminal Shh antibodies (2G4, 2D9), or antibodies against the N-terminal portion of Shh protein (6D3, 2E1), and the effective dose (ED50) was determined (assay 1: FIG. 16A; assay 2: FIG. 16B). […] Possibly due to the fact that very few cells express full-length Shh on the cell surface, the cytotoxic effect of the C-terminal Shh antibodies was not as potent as the cytotoxic effect of the N-terminal antibodies.
Next, the cytotoxicity of the C-terminal Shh antibodies was tested when the antibodies were used in conjunction with a small-molecule inhibitor of GLI zinc-finger transcription factor signaling, 249C (4-(5-chlorofuran-2-yl)-1,3-bis(2,4-difluorophenyl)-5-methyl-N-((4-methylmorpholin-2-yl)methyl)-4,5-dihydro-1H-pyrazole-5-carboxamide; Compound 135 above). A549 cells were exposed to varying concentrations of the C-terminal antibodies (2G4, 2D9) or the N-terminal antibodies (6D3, 2E1), in the presence or absence of a very low dose (40 nM) of 249C. (The IC50 of 249C in A549 cells is ˜70 nM.)

[3] = biological target: T1, full-length Shh polypeptide (Homo sapiens, UniProt Q15465); test: Flow cytometry: binding of C-terminal Shh antibodies to full-length Shh expressed in transfected cells; details: antibody at 1:10 (Commercial at 1:50)
T1 construct: Expression of full-length Shh polypeptide in transfected cells; expressed in transfected cells; pCMV-Shh plasmid (Origene)
Experimental: FACS (1:40). The secondary antibody was a donkey anti-mouse FITC-linked antibody (ab97029, 1:100, Abcam). For cell analysis after treatment assays (chemotherapy or GDC0449), a dead cell marker (SytoxRed, Invitrogen) was also used. For human fresh samples, an anti-CD45 APC-linked antibody (ab28106, 1:100, Abcam), and a dead cells marker (SytoxRed, Invitrogen) were added. For staining of stable transfected cell lines, mouse anti-HA antibody (Abcam, 1:100) and rabbit anti-FLAG antibody (Cell Signaling; 1:400) were used. Corresponding secondary antibodies were donkey anti-mouse AlexaFluor647 (Invitrogen, 1:1000) and donkey anti-rabbit AlexFluor594 (Invitrogen, 1:1000) antibodies. Flow cytometry analyses were performed on AccuriC6 flow cytometer (BD Biosciences), and FACS on FACSAria II (BD Biosciences). Flow analyses were based at least on 200,000 cells, and each test was made at least in triplicate. For all experiments, a negative control with cells processed without primary antibody was used. […]
Expression of full-length Shh polypeptide in transfected cells increased the percentage of cells labeled with the Shh antibodies produced by two of the subclones (2D9 and 2G4) identified after the screening, compared to the percentage of untransfected cells labeled by the same antibodies, as measured by flow cytometry (Table 3).

B1: 2D9: purified mouse monoclonal C-terminal Shh antibody from hybridoma sub-clone 2D9 of clone 1C11, IgG1 kappa (antibody)
heavy: EVKLVESGGGLVKPGGSLKLSCAASGFTFSSYTMSWVRQTPAKRLEWVATISSGGGNTYYPDSVKGRFTISRDNARNTLYLQMSSLRSEDTAMYYCARDYRSLFAYWGQGTLVTVSAAKTTPPSVYPLAPGSAAQTNSMVTLGCLVKGYFPEPVTVTWNSGSLSSGVHTFPAVLQSDLYTLSSSVTVPSSTWPSETVTCNVAHPASSTKVDKKIVPRDCGCKPCICTVPEVSSVFIFPPKPKDVLTITLTPKVTCVVVDISKDDPEVQFSWFVDDVEVHTAQTQPREEQFNSTFRSVSELPIMHQDWLNGKEFKCRVNSAAFPAPIEKTISKTKGRPKAPQVYTIPPPKEQMAKDKVSLTCMITDFFPEDITVEWQWNGQPAENYKNTQPIMDTDGSYFIYSKLNVQKSNWEAGNTFTCSVLHEGLHNHHTEKSLSHSPGK
light: QIVLTQSPAIMSASPGEKVTITCSASSSVSYMHWFQQKPGTSPKLWIYSTSNLASGVPARFSGSGSGTSYSLTISRMEAEDAATYYCQQRSSYPFTFGSGTKLEIKRADAAPTVSIFPPSSEQLTSGGASVVCFLNNFYPKDINVKWKIDGSERQNGVLNSWTDQDSKDSTYSMSSTLTLTKDEYERHNSYTCEATHKTSTSPIVKSFNRNEC
**Q.** B1 was tested. Which “binding response to Shh peptide-mimic ligands (BLI)” value [1] did it give?
**A.** increases in binding response

**Q.** And the “Average % change in tumor volume, relative to day −2” value ([2]; Day 0)?
**A.** 111.10%

**Q.** What about the “Average change in tumor volume” value ([2]; Day 0, 158 μg intra-tumor 3 times a week) of the same molecule?
**A.** 14.18 mm^3

**Q.** What about the “Average % change in tumor volume, relative to day −2” value ([2]; Day 2) of the same molecule?
**A.** 113.30%

**Q.** What about the “Average change in tumor volume” value ([2]; Day 2) of the same molecule?
**A.** 28.14 mm^3

**Q.** And the “Average % change in tumor volume, relative to day −2” value ([2]; Day 5)?
**A.** 131%

**Q.** And the “Average change in tumor volume” value ([2]; Day 5)?
**A.** 104.6 mm^3

**Q.** What about the “Average % change in tumor volume, relative to day −2” value ([2]; Day 7) of the same molecule?
**A.** 141.70%

**Q.** And the “Average change in tumor volume” value ([2]; Day 7)?
**A.** 150.4 mm^3

**Q.** And the “Average % change in tumor volume, relative to day −2” value ([2]; Day 12)?
**A.** 157.70%

**Q.** What about the “Average change in tumor volume” value ([2]; Day 12) of the same molecule?
**A.** 187.6 mm^3

**Q.** What about the “Average % change in tumor volume, relative to day −2” value ([2]; Day 14) of the same molecule?
**A.** 163.90%

**Q.** And the “Average change in tumor volume” value ([2]; Day 14)?
**A.** 220.5 mm^3

**Q.** What about the “Average % change in tumor volume, relative to day −2” value ([2]; Day 16) of the same molecule?
**A.** 162%

**Q.** What about the “Average change in tumor volume” value ([2]; Day 16) of the same molecule?
**A.** 207.9 mm^3

**Q.** And the “Average % change in tumor volume, relative to day −2” value ([2]; Day 19)?
**A.** 206.90%

**Q.** And the “Average change in tumor volume” value ([2]; Day 19)?
**A.** 331.3 mm^3

**Q.** What about the “Average % change in tumor volume, relative to day −2” value ([2]; Day 21) of the same molecule?
**A.** 193.60%

**Q.** What about the “Average change in tumor volume” value ([2]; Day 21) of the same molecule?
**A.** 309.6 mm^3

**Q.** What about the “Average % change in tumor volume, relative to day −2” value ([2]; Day −2) of the same molecule?
**A.** 100%

**Q.** And the “Weight of tumor after treatment, AVG” value ([2]; average of 3 animals)?
**A.** 0.1142

**Q.** What about the “Weight of tumor after treatment” value ([2]; individual animals) of the same molecule?
**A.** 0.0512 and 0.1172 and 0.1742

**Q.** And the “Cell viability of A549 cells” value (A549 cells; Ab conc. 32 ng/mL)?
**A.** 93%

**Q.** What about the “Cell viability of A549 cells” value (A549 cells; Ab conc. 64 ng/mL) of the same molecule?
**A.** 65%

**Q.** What about the “Cell viability of A549 cells” value (A549 cells; Ab conc. 128 ng/mL) of the same molecule?
**A.** 80%

**Q.** What about the “synergy with a GLI inhibitor in reducing viability of non-small cell lung cancer cells” value (A549 cells; with 249C at 40 nM) of the same molecule?
**A.** act synergistically

**Q.** What about the “percentage of cells labeled with the Shh antibody (flow cytometry)” value ([3]; +SHh Full-Length transfection) of the same molecule?
**A.** 1.43%

**Q.** What about the “percentage of cells labeled with the Shh antibody (flow cytometry)” value ([3]; No transfection) of the same molecule?
**A.** 0.17%

Values joined by “and” are separate entries in the source; they are usually repeats but may differ in a detail not shown here. Equal values may be shown once.
